Data published in publication PMC4336329 (PLoS ONE, 2015).
The whole screen tested about 310,000 compounds, of which about 14,000 (4.5%) showed an effect of 50% or more. Effects have a minus sign here. Some of the results follow.

The compounds below were run against human ether-à-go-go-related gene (hERG) potassium channel (human, UniProt Q12809) (assay: primary screen, population patch clamp on CHO cells stably expressing hERG).
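Also: peak tail current of the secondary pulse compared with the same well before compound.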

Sequence of human ether-à-go-go-related gene (hERG) potassium channel (Q12809 whole entry, looked up): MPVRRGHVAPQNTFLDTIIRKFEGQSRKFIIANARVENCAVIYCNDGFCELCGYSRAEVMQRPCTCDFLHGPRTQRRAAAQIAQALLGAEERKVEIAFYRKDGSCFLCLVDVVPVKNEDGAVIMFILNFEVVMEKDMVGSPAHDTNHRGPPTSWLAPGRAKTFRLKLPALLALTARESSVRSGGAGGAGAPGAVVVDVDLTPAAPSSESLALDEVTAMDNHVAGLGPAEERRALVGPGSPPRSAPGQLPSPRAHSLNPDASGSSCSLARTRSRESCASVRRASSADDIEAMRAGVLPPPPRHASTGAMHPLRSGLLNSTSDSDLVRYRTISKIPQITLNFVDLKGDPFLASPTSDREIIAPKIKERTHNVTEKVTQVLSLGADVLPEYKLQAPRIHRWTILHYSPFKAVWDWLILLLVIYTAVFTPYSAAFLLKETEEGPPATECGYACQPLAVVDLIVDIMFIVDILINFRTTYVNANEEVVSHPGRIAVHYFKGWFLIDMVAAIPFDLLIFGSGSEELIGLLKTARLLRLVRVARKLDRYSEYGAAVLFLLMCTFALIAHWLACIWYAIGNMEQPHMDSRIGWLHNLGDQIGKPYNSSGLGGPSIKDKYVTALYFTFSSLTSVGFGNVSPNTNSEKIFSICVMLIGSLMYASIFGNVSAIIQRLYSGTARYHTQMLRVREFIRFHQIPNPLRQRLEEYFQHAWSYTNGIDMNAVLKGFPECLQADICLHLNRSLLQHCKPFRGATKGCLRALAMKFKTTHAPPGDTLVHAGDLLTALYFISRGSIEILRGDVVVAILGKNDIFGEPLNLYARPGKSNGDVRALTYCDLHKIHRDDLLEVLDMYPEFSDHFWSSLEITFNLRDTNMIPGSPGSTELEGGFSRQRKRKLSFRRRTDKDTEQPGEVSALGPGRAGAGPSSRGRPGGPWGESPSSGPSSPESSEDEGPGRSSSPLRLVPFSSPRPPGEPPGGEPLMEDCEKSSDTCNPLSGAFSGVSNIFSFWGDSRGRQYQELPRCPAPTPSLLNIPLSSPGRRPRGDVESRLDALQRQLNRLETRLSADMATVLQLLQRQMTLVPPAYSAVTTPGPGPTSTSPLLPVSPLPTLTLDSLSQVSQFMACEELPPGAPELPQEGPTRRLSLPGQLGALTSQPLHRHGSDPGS

Structure (SMILES)	hERG current change (%, negative = inhibition) at 10uM [%]
Nc1cc(N)nc(CS)n1	3.39
CCOc1ncccc1C(=O)Nc1ccc(-c2cn3ccsc3n2)cc1	6
COc1cc(C)c(S(=O)(=O)NCc2ccc3c(c2)OCO3)cc1C	-16.4
CCCc1nc(-c2ccc(-c3ccc(F)cc3)cc2)no1	7.85
Cn1cc(CN2CCN(c3ccccc3)CC2)c2ccccc21	-54
S=C(Nc1ccccc1)N1CCCN1c1ccccc1	27.5
COc1ccccc1NS(=O)(=O)c1ccc(C)c(NC(=O)NCCCl)c1	-14.2
Cl.O=C(Cc1ccc(Cl)cc1)NCCN1CCCC1	-21.9
Cc1ccccc1NC(=O)CSCCO	12.7
COCCCNC(=O)c1c[nH]c2ccc(S(=O)(=O)N3CCC4(CC3)OCCO4)cc2c1=O	19
O=C(CCN1C(=O)c2ccccc2C1=O)Nc1ccc(-c2nc3ccccc3s2)cc1	25
Cc1ccccc1NCC(=O)N/N=C\c1ccc2c(c1)OCO2	-0.637
Cc1ccc(-c2cc(C(=O)O)n[nH]2)o1	8.06
CC(=O)/C(N=Nc1ccc(SC(F)F)cc1)=C(\C)O	-10.5
CCOC(=O)c1c(C)[nH]c(C(=O)/C(C#N)=C/c2ccc(OC(F)F)c(OC)c2)c1C	15.6
COc1ccccc1N1CCN(Cc2ccc(OC)c(OC)c2OC)CC1	-35.8
CCNC(=O)COC(=O)/C=C/c1c(C)nn(Cc2cccc(OC)c2)c1Cl	12
CC(Cc1cccs1)NC(=S)Nc1ccc(Cl)cc1 (stereo not shown)	14.6
CN(C(=O)CSc1ccccc1C(=O)O)C1CCCCC1	-42.7
CCOCCCNC(=O)CSCc1nc(-c2ccc(SC)cc2)oc1C	-10.3

Structure (SMILES)	hERG current change (%, negative = inhibition) at 10uM [%]
O=C(O)c1cc(Oc2ccc(C(F)(F)F)cc2Cl)ccc1[N+](=O)[O-]	23.9
Cc1nc(Oc2ccc(Cl)cc2)c2oc3ccccc3c2n1	-0.241
O=C(Cc1cc(=O)[nH]c(=O)[nH]1)NCCN1CCOCC1	9.37
CN(C)S(=O)(=O)c1cccc(NC(=O)c2ccc(N3CCOCC3)c([N+](=O)[O-])c2)c1	-23.3
Br.C=CCN1CCc2c(cc(O)c(O)c2Cl)C(c2ccccc2)C1 (stereo not shown)	-41
c1csc(-c2cn3ccc4ccccc4c3n2)c1	6.29
CCOC(=O)C1CCN(C(=O)c2ccc3c(c2)S(=O)(=O)c2ccccc2C3=O)CC1	-76.6
CCOc1ccc(CCNC(=O)CN2C(=O)CCSc3ccccc32)cc1OCC	7.81
COc1ccc(Cl)cc1C(=O)NCc1cnn(C)c1C	-3.69
COc1ccc(NC(=O)c2ccc(OC)c(S(=O)(=O)N3CCCCC3C)c2)cn1 (stereo not shown)	-5.77
COc1cc(C(C(=O)NC2CCCC2)N(Cc2ccco2)C(=O)c2snc(C(N)=O)c2N)cc(OC)c1OC (stereo not shown)	-8.38
CSc1ncccc1C(=O)Nc1cccc(C)n1	9.89
O=C(NNC(=O)c1ccccc1OCc1ccc(F)cc1)c1ccccc1O	14.6
O=C(COC(=O)c1cc2ccccc2o1)NCc1ccco1	0.657
O=CC1=C(N2CCOCC2)/C(=C\c2ccccc2)CC1	16.6
COc1ccc2c(c1)c(=O)oc1cc(OCC(=O)N3CCCC(C)C3)ccc12 (stereo not shown)	-4.74
COc1ccc(S(=O)(=O)N2CCOC2CNC(=O)C(=O)NCc2ccc(F)cc2)cc1OC (stereo not shown)	-1.87
Cc1cc(NS(=O)(=O)c2cccs2)no1	-3.03
CCCS(=O)(=O)c1nc(S(=O)(=O)c2ccc(Cl)cc2)c(N2CCC(O)CC2)s1	-46.9
CCCOc1ccc(C(=O)CCNc2ccc(C)c(Cl)c2)cc1	-2.42

Structure (SMILES)	hERG current change (%, negative = inhibition) at 10uM [%]
Cc1ccc2c(=O)cc(C(=O)NC3CCS(=O)(=O)C3)oc2c1 (stereo not shown)	15.5
CC(=O)c1cc(CN2CCN(CC=C(C)C)C(CCO)C2)cs1 (stereo not shown)	16.3
C=CCSc1[nH]c(=O)cc(C)c1C(N)=O	9.75
CCOC(=O)c1sc2nc(C)nc(SCC(N)=O)c2c1C	13.5
CCOC(=O)c1csc(NC(=O)CSc2nnnn2-c2cccc(OC)c2)n1	6.64
CCc1nnc(NC(=O)CSc2nnc(Cc3cc(=O)[nH]c(=O)[nH]3)n2-c2cccc(OC)c2)s1	24.9
O=C(Nc1cccc2c1[nH]c1ccccc12)C(F)(F)F	-15.5
COCCNC(=O)c1onc(CSc2cccc(C)c2)c1C(=O)O	2.32
O=C(CSc1nc2ccccc2c(=O)[nH]1)Nc1nc(-c2ccc(Br)cc2)cs1	14.8
CC1CCN(C2(O)C(=O)Nc3ccc([N+](=O)[O-])cc32)CC1 (stereo not shown)	-0.363
COc1ccc(C2C(C(=O)N3CCN(c4ccccn4)CC3)CCC(=O)N2c2ccc(OC)cc2)cc1 (stereo not shown)	-47.3
CCOc1ccccc1C(=O)Nc1ccc(NC(=O)c2ccccc2)cc1	12.7
O=C(CN1CCN(Cc2ccc(F)cc2Cl)CC1)NCc1ccccc1	-23.2
Cc1c(C#N)c(N=CN(C)C)c(C(=O)c2ccc(Br)cc2)n1-c1ccc(Cl)cc1	5.81
Cc1cc([N+](=O)[O-])nn1CC(=O)Nc1ccc(Cc2ccncc2)cc1	-10.9
CC1CCN(CC(C)CNC(=O)c2cc(-c3ccccn3)nc3ccccc23)CC1 (stereo not shown)	-62.5
CC(C)NC(=O)CCCc1c[nH]c2ccccc12	25.2
CCOC(=O)C(O)(c1ccc(N=c2ccccn2C)cc1)C(F)(F)F (stereo not shown)	-10.8
